In PubChem BioAssay AID1468 (National Center for Advancing Translational Sciences (NCATS), 2008):
About 1,100 (0.39%) of roughly 280,000 compounds were called active. Inconclusive results, whose numbers are uncertain, are shown with a selection of clear calls. Calls come from the whole dose curve; as a rule, active = well fitted inhibition curve with a large enough effect; inconclusive = small, poorly fitted or top-dose-only effect, or effect the other way; inactive = flat fitted curve, though single readings scatter. Potencies of inconclusive entries are left out as doubtful fits.
% is set by controls: 0 for no effect and ±100 for the full control effect; potency is the fitted concentration of half-maximal effect; tags give direction and shape of the fitted curve.
Note: nearly all actives have a fitted effect of over 55% in size.

What follows are compounds tested against Microtubule-associated protein tau (Homo sapiens) (UniProt P10636) (assay: qHTS for Inhibitors of Tau Fibril Formation, Fluorescence Polarization). Conditions: K18 P301L tau heparin fibrillization, Alexa594 FP, 6 h; series mostly up to 57.7 µM; activity, negative = inhibition: at the top concentration.
UniProt P10636, sequence (P10636 whole entry, looked up, the tested form may be a part): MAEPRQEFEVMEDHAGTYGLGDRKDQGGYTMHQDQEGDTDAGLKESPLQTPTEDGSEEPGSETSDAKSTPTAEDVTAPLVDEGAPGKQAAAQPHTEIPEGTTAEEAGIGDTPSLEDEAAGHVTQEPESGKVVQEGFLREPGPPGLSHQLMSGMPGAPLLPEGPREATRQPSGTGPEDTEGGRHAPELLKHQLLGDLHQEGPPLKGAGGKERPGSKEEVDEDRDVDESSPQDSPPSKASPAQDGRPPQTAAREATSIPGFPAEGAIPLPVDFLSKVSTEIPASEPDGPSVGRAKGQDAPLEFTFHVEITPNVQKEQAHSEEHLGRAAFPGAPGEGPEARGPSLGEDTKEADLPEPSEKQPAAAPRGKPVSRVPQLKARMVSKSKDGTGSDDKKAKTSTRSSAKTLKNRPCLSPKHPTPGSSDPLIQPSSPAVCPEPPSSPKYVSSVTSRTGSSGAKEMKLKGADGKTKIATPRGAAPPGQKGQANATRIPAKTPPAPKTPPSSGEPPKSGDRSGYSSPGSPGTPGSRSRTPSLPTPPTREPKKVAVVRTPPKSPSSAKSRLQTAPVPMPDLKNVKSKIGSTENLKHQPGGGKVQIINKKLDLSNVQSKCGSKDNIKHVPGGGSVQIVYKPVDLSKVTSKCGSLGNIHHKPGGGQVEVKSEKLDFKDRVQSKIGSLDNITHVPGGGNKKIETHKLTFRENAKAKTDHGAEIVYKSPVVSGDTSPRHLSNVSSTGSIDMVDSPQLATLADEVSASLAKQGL
How it was run: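 Human K18 P301L fragment (15 uM unlabeled plus 0.24 uM Alexa 594-labeled) in 100 mM sodium acetate pH 7 with compound, aggregation induced by 20 uM heparin for 6 hr at 37 C. ThT (30 uM) added for 1 hr, then Alexa 594 FP read.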
In the case of `COCCNC(=O)c1sc2ncccc2c1-n1c(C)ccc1C`, the “activity, negative = inhibition” value is reported as inactive: -3.79%.
`Cc1cccc(N/N=C(\C=N\N)C(=O)c2ccc(Br)cc2)c1` was tested, and the Potency was inconclusive [inhibitor, partial curve].
`Clc1nssc1=Nc1ccccc1` was tested, and the Potency was active: 39.8 µM.
`COCCn1c(CNC(=O)c2cccc(C)c2)nc2cccnc21` was tested, and the “activity, negative = inhibition” value was inactive: -6.22%.
With `CCOC(=O)C(NCCc1ccccc1F)(NC(C)=O)C(F)(F)F` (stereo unspecified) the “activity, negative = inhibition” value was inactive: -0.286%.
`CCC(C)NC(=O)CSc1nnc(-c2cc(-c3cccs3)nc3ccccc23)o1` (stereo unspecified) was tested, and the Potency was inconclusive [inhibitor, partial curve].
`COc1ccc2[nH]c(=O)c(CN(Cc3cccs3)C(=S)Nc3ccccc3)cc2c1` was tested, and the Potency was inconclusive [inhibitor, partial curve].
In the case of `CSc1nc2ccc3nc(NC(=O)c4ccccc4)sc3c2s1`, the Potency is reported as inconclusive [inhibitor, partial curve].
For `Cc1ccc(C(=O)N/C(=C\c2ccc(-c3cc(Cl)ccc3Cl)o2)C(=O)NCc2cccnc2)cc1`, the Potency was inconclusive [activator, partial curve, poor fit].
With `Cc1ccc(OCCOC(=O)c2sc(=S)n(C)c2C)cc1` the Potency was inconclusive [inhibitor, single point].
With `COc1ccccc1NC(=O)C1=C(C)Nc2nc(SCc3ccccc3)nn2C1c1cccc(O)c1` (stereo unspecified) the Potency was inconclusive [inhibitor, partial curve].
`CCN(CC)c1ccc(NC(=O)CN2CCN(c3ccccc3F)CC2)cc1` was tested, and the Potency was “inactive”.
For `Cc1[nH]c2ccc(Br)cc2c1CCNC(=O)c1cc2ccccc2oc1=O`, the Potency was inconclusive [activator, full curve].
In the case of `Cc1ccc(C(=O)c2cc3ccccc3o2)cc1[N+](=O)[O-]`, the Potency is reported as inconclusive [inhibitor, single point].
With `C=CCn1c(Cc2ccccc2)n[nH]c1=S` the “activity, negative = inhibition” value was inactive: 10.6%.
`Cc1cccc(NC(=O)CN2C(=O)C(c3ccccc3)=NC23CCC(C)CC3)c1` (stereo unspecified) was tested, and the Potency was inconclusive [inhibitor, partial curve].
For `O=C(NCCN1CCN(c2cccc(Cl)c2)CC1)c1ccc(CSc2nc3ccncc3[nH]2)cc1`, the Potency was inconclusive [inhibitor, partial curve, poor fit].
`CC1CN(C(=O)c2ccc(COc3ccc4ccccc4c3)o2)CC(C)O1` (stereo unspecified) was tested, and the Potency was inconclusive [inhibitor, single point].
With `Cc1cc(C)cc(-n2cnc3cc(C(=O)NC4CCCCCC4)ccc32)c1` the “activity, negative = inhibition” value was inactive: 9.2%.
With `Cc1ccc(CCNC(=O)c2ccc3[nH]c(C)c(C)c3c2)cc1` the “activity, negative = inhibition” value was inactive: 11.6%.
For `Nc1nc2c(s1)CCc1c-2cnn1-c1ccccc1`, the Potency was inconclusive [inhibitor, single point].
In the case of `O=C(NC(=S)Nc1nc(-c2ccc(Cl)cc2)cs1)c1cccs1`, the Potency is reported as inconclusive [inhibitor, single point].
In the case of `CCc1nc2c(cnn2-c2ccc(C)cc2)c(=O)n1Cc1ccccc1`, the Potency is reported as inconclusive [inhibitor, partial curve, poor fit].
`CCc1nnc(NS(=O)(=O)c2ccc(NC(=S)NC(=O)c3ccncc3)cc2)s1` was tested, and the “activity, negative = inhibition” value was inactive: -5.56%.
In the case of `Cc1ccccc1Nc1nn2c(=O)c3ccc(C(=O)NCc4ccccc4)cc3nc2s1`, the Potency is reported as inconclusive [inhibitor, partial curve].
For `COC(=O)c1ccc(NC(=O)Nc2ccc(F)c(Cl)c2)cc1`, the Potency was active: 15.8 µM.
`COc1ccc(NC(=O)c2cc(C)nc3c2c(C)nn3-c2ccc(C)cc2)cc1OC` was tested, and the “activity, negative = inhibition” value was inactive: -4.53%.
In the case of `CSc1cc(/C=N/O)c(SC)s1`, the “activity, negative = inhibition” value is reported as inactive: -7.43%.
In the case of `CCOc1cc(OCC)cc(C(=O)Nc2cccc(-c3nc4ccccc4[nH]3)c2)c1`, the Potency is reported as inconclusive [inhibitor, partial curve].
For `COCc1cc(C)nc2c1C(=O)NC(c1ccc(C)cc1)N2Cc1ccccc1` (stereo unspecified), the “activity, negative = inhibition” value was inactive: -2.16%.
With `O=C1NC(=Nc2ccccc2)S/C1=C\c1cccs1` the “activity, negative = inhibition” value was inactive: -9.69%.
`Fc1ccccc1N1CC(c2ccccc2)C(c2cccs2)=N1` (stereo unspecified) was tested, and the Potency was inconclusive [activator, single point].
For `O=C(Nc1cccc(S(=O)(=O)Nc2ccc(Cl)cc2)c1)c1ccc2c(c1)OCCO2`, the Potency was inconclusive [inhibitor, partial curve].
With `O=C(COc1ccccc1Cl)Nc1nc(-c2cccs2)cs1` the Potency was inconclusive [inhibitor, partial curve, poor fit].
For `Cn1cccc1/C=N\NC(=O)Cc1ccc(Br)c2ccccc12`, the Potency was inconclusive [inhibitor, single point].
For `COc1cc2c(cc1NC(=O)COC(=O)C(CCSC)NC(=O)c1ccccc1Cl)oc1ccccc12` (stereo unspecified), the Potency was inconclusive [inhibitor, partial curve].
`COc1cc(C(=O)Nc2ccc(NC(=O)c3ccc(C(C)(C)C)cc3)cc2)cc(OC)c1OC` was tested, and the Potency was inconclusive [inhibitor, partial curve].
With `C=CCn1cccc(/C=C/C(=O)c2ccc(C(C)(C)C)cc2)c1=S` the “activity, negative = inhibition” value was inactive: 15.8%.
With `Cc1cccc(CNC(=O)c2ccc(N3Cc4ccccc4Oc4ncccc43)s2)c1` the “activity, negative = inhibition” value was inactive: 4.73%.
In the case of `O=C(N/N=C/c1ccc(Br)s1)c1cccs1`, the Potency is reported as inconclusive [inhibitor, single point].
With `Cc1cc(C)cc(NC(=O)c2cc(=O)c3ccccc3o2)c1` the Potency was inconclusive [inhibitor, single point].
In the case of `Cc1ccc(CN2CCN(Cc3cnc(N4CCOCC4)s3)CC2CCO)cc1` (stereo unspecified), the “activity, negative = inhibition” value is reported as inactive: 2.91%.
For `COc1ccccc1C(=O)Nc1ccc2nc(SCCOc3ccccc3C)sc2c1`, the “activity, negative = inhibition” value was inactive: -10.9%.
`Nc1nc(-n2cnnc2)nn1-c1ccccc1` was tested, and the Potency was inconclusive [inhibitor, full curve, poor fit].
`Cc1ccc(NC(=S)Nc2ccc(Cl)c(Cl)c2)c(OC(F)F)c1` was tested, and the Potency was inconclusive [inhibitor, single point].
In the case of `Cc1cccc(NC(=O)c2nc[nH]c2C(=O)NCC(=O)OCc2ccccc2)c1`, the Potency is reported as inconclusive [inhibitor, partial curve].
